Measured values taken from PubChem BioAssay AID1346428 (National Center for Advancing Translational Sciences (NCATS), 2018).
In all, about 48,000 compounds went through this assay and about 1,200 (2.5%) were called active. Roughly 2% stayed inconclusive and do not appear here.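 The calls were made as follows: active = activation of at least 60% and not above a set upper limit (about 1 call in 100 departs from these limits); inconclusive = activation of 40% to 60%, or above that upper limit; inactive = activation under 40%.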 Some of the results follow.

biological target: Probable G-protein coupled receptor 32 (Homo sapiens) (UniProt O75388); assay: qHTS for Agonists of Human Resolvin D1 Receptor DRV1; conditions: CHO-K1 GPR32 beta-arrestin PathHunter luminescence, 90 min; at 76.9 µM; hits give high values; zero percent set by DMSO-only wells; also: 0% is about no effect
UniProt O75388, sequence (O75388 whole entry, looked up): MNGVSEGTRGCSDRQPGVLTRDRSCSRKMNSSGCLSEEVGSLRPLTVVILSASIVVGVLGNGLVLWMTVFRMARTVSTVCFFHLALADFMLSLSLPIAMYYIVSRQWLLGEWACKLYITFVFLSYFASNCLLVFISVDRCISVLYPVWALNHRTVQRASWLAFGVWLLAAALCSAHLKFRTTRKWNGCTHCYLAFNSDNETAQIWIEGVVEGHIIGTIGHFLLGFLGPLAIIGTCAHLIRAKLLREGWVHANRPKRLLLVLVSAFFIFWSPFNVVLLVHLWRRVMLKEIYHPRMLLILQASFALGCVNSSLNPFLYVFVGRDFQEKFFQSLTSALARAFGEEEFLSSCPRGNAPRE
Outline: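 Beta-arrestin recruitment read-out: luminescence from complemented beta-Gal in CHO-K1 GPR32 PathHunter cells, measured 1 h after detection reagent at ambient temperature following 90 min compound exposure at 37 °C; DMSO served as basal (EC0) control.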

activation, inactive:
COC(=O)c1ccccc1NC(=O)c1ccc2nc(CCc3ccccc3)oc2c1 -18.3%
CCn1c(=O)c2cc(C(=O)NCCCN3CCC(C)CC3)sc2c2ccccc21 2.77%
COc1cccc(-c2noc(COc3ccccc3Cl)n2)c1 -11.1%
Cc1ccc(Cl)cc1NC(=O)CSc1nc2ccccc2nc1Cc1ccccc1 -9.31%
Cc1ccccc1CSc1nc2ccsc2c(=O)n1CCC(C)C -4.68%
Cc1ccc2cc(CN(C(=O)c3cccc(Cl)c3)c3ccccc3)c(=O)[nH]c2c1 -12.3%
CCCSCCCNC(=O)c1ccc2c(c1)sc1nc(-c3ccc(OCC)cc3)cn12 -7.42%
CC1C(=O)N2CCCc3cc(S(=O)(=O)N4CCC(C(N)=O)CC4)cc1c32 (centres undefined) -4.69%
COc1ccccc1NC(=O)c1oc2ccccc2c1NC(=O)C1CCCCC1 -5.25%
COc1cccc(CNC(=O)c2cnc(N3CCCCC3)c3ccccc23)c1 16.8%
O=C(NCc1ccccc1F)C1CCN(c2nn3cc(-c4ccc(F)cc4)nc3s2)CC1 -4.43%
CN1c2ccc(Cl)cc2-c2nc(SCC(=O)NCc3ccccc3)ncc2S1(=O)=O -2.15%
Cc1ccc(OCc2ccc(-c3nc(C#N)c(NCc4ccccc4Cl)o3)o2)cc1 17.4%
Cc1ccc(Cn2c(C(=O)O)c(CNC3CCCC3)c3ccc(C)cc32)cc1 17.8%
COc1ccc(C)cc1NC(=O)C(Cc1ccccc1)NS(=O)(=O)c1cccs1 (centres undefined) 2.9%
O=C(NC1CC(=O)N(c2cccc(F)c2)C1)c1cc2ccccc2o1 (centres undefined) -12.9%
O=C(Nc1ccccc1C(F)(F)F)N1CCC(CN2CCc3ccccc3C2)CC1 -12%
Cc1cc(C)cc(-n2c(SCC(N)=O)nc3c([nH]c4ccccc43)c2=O)c1 -18.6%
CCOC(=O)c1ccc(CN(Cc2ccccc2C)S(=O)(=O)c2ccc(F)c(C)c2)cc1 -31%
COCCNc1oc(/C=C/c2ccc(F)cc2)nc1C#N -28.3%
Cc1ccc2nc(-c3cccc(NC(=O)c4cccc5ccccc45)c3)oc2c1 3.6%
CCC(=O)N1CCc2cc(Br)cc(S(=O)(=O)CCC(=O)NCc3cccc(OC)c3)c21 -11.5%
CCOC(=O)CC(=O)CSc1nc2ccsc2c(=O)n1Cc1ccccc1 -24.8%
CCC(=O)N1CCc2cc(Br)cc(S(=O)(=O)N3CCN(c4ccccc4OC)CC3)c21 2.18%
Cc1noc(-c2ccc(NC(C)c3ccccc3)c([N+](=O)[O-])c2)n1 (centres undefined) -9.96%
Cc1ccc(CNC(=O)c2nc(SCc3ccccc3C)ncc2Cl)cc1 0.125%
CC1(c2ccccc2)CC(C)(C)N(C(=O)c2cccc(Cl)c2)c2ccccc21 (centres undefined) -29.7%
COc1ccccc1NC(=O)c1ccc(CN2C(=O)C(C)=C(c3ccc(C)c(C)c3)S2(=O)=O)cc1 -12.2%
Cc1ccc(CNC(=O)c2ccc(CSCc3cccc(C)c3)o2)cc1 20.6%
Cc1ccc(CCNS(=O)(=O)c2c(C)nc3sc(C)c(C)n3c2=O)cc1 3.02%
COc1cccc(-c2nnc(-c3ccccc3NC(=O)c3ccc(F)cc3F)o2)c1 -20.1%
Cc1cc(C)cc(-n2c(SCC(=O)N3CCOCC3)nc3c([nH]c4ccccc43)c2=O)c1 -3.07%
O=C1C(=O)N(C2CCN(C(=O)c3ccccc3Cl)CC2)CCN1Cc1ccc(F)cc1 -18.3%
Cc1nc2ccn(Cc3cccs3)c(=O)c2cc1C(=O)N1CCN(c2ccccc2F)CC1 -19.9%
COc1cccc(NC(=O)c2ccc3c(c2)CCN3S(C)(=O)=O)c1 4.99%
CC1CCN(S(=O)(=O)c2ccc3c(c2)N(CC(=O)NCCc2ccccc2)C(=O)CO3)CC1 -32.1%
Fc1ccc(Nc2ncnc3onc(-c4ccc(Cl)cc4)c23)cc1Cl 49.8%
CCOc1ccc(CCNC(=O)c2ccc3c(c2)N(Cc2ccc(C)cc2)CCS3)cc1 -20.6%
O=C(C1CCCN(S(=O)(=O)c2ccc(Br)s2)C1)N1CCN(c2ccccc2F)CC1 (centres undefined) -20.4%
CCOC(=O)c1cn(CC(=O)Nc2ccc(OC)cc2OC)nn1 -11.4%
CCN(C(=O)c1sc2nc3n(c(=O)c2c1C)CCCCC3)c1ccc(OC)cc1 -4.41%
CCN(CC)CCCNc1sc(S(=O)(=O)c2ccccc2)nc1S(=O)(=O)c1ccc(Cl)cc1 -22.1%
CCOC(=O)c1c(C)[nH]c(CCC(=O)NC(C)c2ccccc2)c1C (centres undefined) -8.82%
COc1ccc(C)cc1NC(=O)NC(C)c1c(-n2cccc2)sc(C)c1C (centres undefined) -20.7%
Cc1ccc(Cl)cc1NC(=O)Cn1c(=O)n(CCC(=O)NCc2ccc3c(c2)OCO3)c(=O)c2sccc21 -16.5%
COC(=O)C(NC(=O)CCc1c(C)nc2c(-c3ccccc3)c(C)nn2c1C)C(C)C (centres undefined) 12.3%
CCCC(=O)Nc1nnc(S(=O)(=O)N2CCCCCC2)s1 -57.1%
COc1ccc(C2C(C(=O)Nc3ccccc3)=C(C)Nc3nc(SCC(=O)c4ccc(C)cc4)nn32)cc1 (centres undefined) -6.86%
CC1=C(c2ccc(F)cc2)S(=O)(=O)N=C1N1CCC(C(=O)NCCc2ccccc2C)CC1 -22.9%
CC(C)Cc1ccc(S(=O)(=O)N2CCN(Cc3noc(CCC(=O)N4CCCCC4)n3)CC2)cc1 -19.3%
Cc1cc(C)nc(-n2nc(C)c3c2NC(=O)CC3c2cccc(O)c2)n1 (centres undefined) -5.32%
CCOc1cc2c(cc1OCC)C(CC(=O)O)N(C(=O)Nc1ccccc1C(F)(F)F)CC2 (centres undefined) -2.62%
Cc1cc2nn(-c3ccc(F)cc3)nc2cc1NC(=O)c1cccc2c(Cl)cccc12 6.22%
CCOC(=O)c1ccc2c(c1)N(Cc1ccc(F)cc1Cl)C(=O)c1ccccc1S2(=O)=O -19.1%
